The whole screen tested about 340,000 compounds, of which about 6,900 (2%) were called active. No stated cut-off is given here; in the data, active means inhibition above about 30%; inactive means below that, where a call was filed. This is a selection; strong and weak results do not stand in their true shares. The source gives no active or inactive call for entries shown without one.
Each compound was assayed against D(2) dopamine receptor (Homo sapiens) (UniProt P14416) (assay: HTS Assay for Allosteric Antagonists of the Human D2 Dopamine Receptor: Primary Screen for Antagonists). Conditions: HEK293 TREx D2 cells, calcium flux, dopamine EC80; at 10 µM; stronger effect = higher value.
Method in brief: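 Tetracycline-induced HEK293 T-REx cells expressing D2 force-coupled to calcium signalling were dye-loaded, exposed to compound for 180 s, then challenged with an EC80 of dopamine; calcium flux was followed kinetically for a further 180 s.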
Further: 0% is about no effect.

Chain of UniProt P14416 (P14416 whole entry, looked up): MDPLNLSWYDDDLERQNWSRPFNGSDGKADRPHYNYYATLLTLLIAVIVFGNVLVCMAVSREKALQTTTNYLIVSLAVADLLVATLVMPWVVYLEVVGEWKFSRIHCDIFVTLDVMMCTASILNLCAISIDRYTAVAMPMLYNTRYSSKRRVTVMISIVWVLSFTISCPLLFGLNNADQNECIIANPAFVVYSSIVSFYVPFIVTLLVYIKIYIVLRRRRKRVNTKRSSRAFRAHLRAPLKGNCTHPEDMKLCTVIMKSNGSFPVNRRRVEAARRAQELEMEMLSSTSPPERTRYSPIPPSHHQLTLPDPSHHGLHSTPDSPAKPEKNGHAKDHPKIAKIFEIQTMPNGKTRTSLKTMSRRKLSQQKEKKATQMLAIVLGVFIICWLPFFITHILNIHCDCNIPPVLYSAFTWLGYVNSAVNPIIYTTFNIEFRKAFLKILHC

Row | Compound | inhibition
1 | CCc1ccccc1-n1c(C)nc2cc(C(=O)NCCc3ccc(Cl)cc3)ccc21 | -7.38%
2 | O=C(NCCCc1nc2ccccc2n1Cc1ccc(Cl)cc1)C1CCCCC1 | 1.57%
3 | Cc1ccc(CNC(=O)C2CCN(S(=O)(=O)c3cn(C)cn3)CC2)cc1 | 21.4%
4 | Cc1ccc(-n2ncc(C(=O)NCCN3CCCC3)c2C2CCN(C(=O)OC(C)(C)C)CC2)cc1C | 1.48%
5 | Cc1cc(C(=O)NCCCN2CCN(c3cc(Cl)ccc3C)CC2)n(-c2ccccc2)n1 | active: 47.2%
6 | COc1cccc(N2CCN(C(=O)c3cc4c(=O)oc5ccc(C)cc5c4s3)CC2)c1 | 0.134%
7 | COc1ccccc1N1CCN(CC(O)c2c(C)[nH]c3ccccc23)CC1 (stereo unspecified) | active: 64.9%
8 | CCCCn1nc(NC(=O)c2cccc(Cl)c2)c2cc3cccc(C)c3nc21 | -5.69%
9 | CCCn1c2ccccc2c2cnn(CC(=O)N3CCCC(C)C3)c(=O)c21 (stereo unspecified) | 6.19%
10 | CC(C)c1ccc(Nc2ncnc3onc(-c4ccc(F)cc4)c23)cc1 | -10.7%
11 | COc1ccc(OC)c2sc(N3CCN(C(=O)CCS(=O)(=O)c4ccc(F)cc4)CC3)nc12 | -23.3%
12 | Cc1cc(Cl)ccc1NC(=O)Cn1nnc2sc(-c3ccccc3)cc2c1=O | 20.1%
13 | COC(=O)c1ccc2c(c1)N(Cc1ccc(Cl)cc1)C(=O)c1ccccc1S2 | 2.02%
14 | Cc1nc2nc(SCC(=O)NC3CCCCC3)nn2c(C)c1Cc1ccccc1Cl | -3.07%
15 | COCCNc1nc2c(c(=O)n(Cc3cccc(Br)c3)c(=O)n2C)n1C | 1.93%
16 | COc1ccccc1CNC(=O)CCC1N=C2c3ccccc3N=C(SCC(=O)Nc3ccc(N(C)C)cc3)N2C1=O (stereo unspecified) | 16%
17 | COc1ccc(S(=O)(=O)N2CCCN(CC(=O)Nc3ccc(OC)cc3OC)CC2)cc1 | -4.95%
18 | Cc1c(C(=O)N(C)C)sc2c1c(=O)n(-c1ccc(Cl)cc1)c(=O)n2Cc1ccccc1F | 2.1%
19 | CCOC(=O)c1c(C)[nH]c(C)c1S(=O)(=O)N1CCCC(C(=O)NCc2cccc(OC)c2)C1 (stereo unspecified) | -5.57%
20 | Cc1cc(C(=O)N2CCN(c3cccc(C)c3C)CC2)c2c(C)nn(-c3ccccc3)c2n1 | -6.38%
21 | CCOC(=O)c1sc(NC(=O)C2c3ccccc3Oc3ccccc32)c(C#N)c1C | -12.2%
22 | COc1cccc(-c2ccc3c(N)c(C(=O)Nc4cc(C(F)(F)F)ccc4OC)sc3n2)c1 | 18.7%
23 | Cc1ccc(C(=O)c2cn(CC(=O)NCc3ccccc3Cl)c3nc(C)ccc3c2=O)cc1 | 15.6%
24 | O=C1C2CCCN2C(=O)N1CCCCN1CCN(c2cccc(Cl)c2)CC1 (stereo unspecified) | active: 79.6%
25 | CC(=O)N1CCN(c2ccc(NCc3ccc(C)s3)cc2)CC1 | active: 50%
26 | Cc1ccccc1C(=O)Nc1nnc2n1CCS2 | 0.165%

— PubChem BioAssay AID485344 (National Center for Advancing Translational Sciences (NCATS), 2010)
